# In the supplement of paper PMC7826260:
# Some of the results follow. The data describe in vitro nicking of single-stranded DNA by Rep domains for 1 h at 37 °C with 3 µM enzyme; only the middle of the 90-letter strands is printed. A value is the log2 ratio of uncut reads to the pool without enzyme; the lower, the more was cut; hits are not called. Reads are scaled to the total, so uncut sequences can rise above 0 when many others are cut.
# Tests used:
# Assay in all cases: uncleaved DNA left, log2 of reads against the no-enzyme library (log2 ratio); higher = less cleavage (more negative = more Rep cleavage of the k-mer); sequences stand for … in CTCGTCCG…ACCGGAGA
# [1] = system: T1, Rep nickase domain of Muscovy duck circovirus
# T1 sequence (residues 1-111, tag not shown): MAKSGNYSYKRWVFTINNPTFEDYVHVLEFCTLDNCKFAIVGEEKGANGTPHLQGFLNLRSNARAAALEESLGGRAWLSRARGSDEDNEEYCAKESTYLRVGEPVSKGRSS
# Experimental: (§1)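 A pool of 90-nt single-stranded DNAs with seven random bases just before the constant AC of the nick site (name = the seven bases) was cut by 3 µM recombinant His6-SUMO-tagged Rep nickase domain (300 nM DNA, 50 mM HEPES pH 8.0, 50 mM NaCl, 1 mM MnCl2, 1 h, 37 °C, three replicates). Uncut DNA was amplified and sequenced.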
# [2] = system: T2, Rep nickase domain of banana bunchy top virus
# T2 sequence (residues 1-94, tag not shown): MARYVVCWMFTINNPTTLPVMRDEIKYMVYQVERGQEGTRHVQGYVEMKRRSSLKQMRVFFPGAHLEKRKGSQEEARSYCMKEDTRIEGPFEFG
# Experimental: as §1
# [3] = system: T3, Rep nickase domain of cabbage leaf curl virus
# T3 sequence (residues 1-116, tag not shown): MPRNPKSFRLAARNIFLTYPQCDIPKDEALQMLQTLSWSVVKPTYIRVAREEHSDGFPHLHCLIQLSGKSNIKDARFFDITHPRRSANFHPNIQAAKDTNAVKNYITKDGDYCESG
# Experimental: as §1
# [4] = system: T4, Rep nickase domain of chickpea chlorotic dwarf virus
# T4 sequence (residues 1-124, tag not shown): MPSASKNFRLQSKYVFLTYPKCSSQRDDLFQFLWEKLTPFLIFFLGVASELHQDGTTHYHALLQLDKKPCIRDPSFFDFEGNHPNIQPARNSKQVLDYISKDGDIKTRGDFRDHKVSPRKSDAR
# Experimental: as §1
# [5] = system: T5, Rep nickase domain of faba bean necrotic yellows virus
# T5 sequence (residues 1-98, tag not shown): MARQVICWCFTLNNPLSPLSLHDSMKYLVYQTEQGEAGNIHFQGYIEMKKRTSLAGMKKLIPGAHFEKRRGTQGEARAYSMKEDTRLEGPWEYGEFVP
# Experimental: as §1
# [6] = system: T6, Rep nickase domain of maize striate mosaic virus
# T6 sequence (residues 1-117, tag not shown): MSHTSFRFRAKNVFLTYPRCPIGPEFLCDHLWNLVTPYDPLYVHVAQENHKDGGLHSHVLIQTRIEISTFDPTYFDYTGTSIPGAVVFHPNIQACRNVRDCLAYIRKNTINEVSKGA
# Experimental: as §1
# [7] = system: T7, Rep nickase domain of porcine circovirus 2
# T7 sequence (residues 2-116, tag not shown): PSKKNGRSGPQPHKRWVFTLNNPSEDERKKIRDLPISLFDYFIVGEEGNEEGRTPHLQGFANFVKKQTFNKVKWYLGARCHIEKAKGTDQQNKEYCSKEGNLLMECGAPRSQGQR
# Experimental: as §1
# [8] = system: T8, Rep nickase domain of tomato golden mosaic virus
# T8 sequence (residues 1-124, tag not shown): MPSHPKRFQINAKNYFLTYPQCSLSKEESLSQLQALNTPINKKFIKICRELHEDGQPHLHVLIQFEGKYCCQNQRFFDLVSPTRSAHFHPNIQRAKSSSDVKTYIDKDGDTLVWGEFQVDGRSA
# Experimental: as §1
# [9] = system: T9, Rep nickase domain of tomato yellow leaf curl virus
# T9 sequence (residues 1-136, tag not shown): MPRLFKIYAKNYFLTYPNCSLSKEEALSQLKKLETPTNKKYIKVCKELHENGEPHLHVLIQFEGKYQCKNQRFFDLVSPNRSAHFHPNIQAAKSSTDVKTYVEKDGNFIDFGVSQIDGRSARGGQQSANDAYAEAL
# Experimental: as §1
# [10] = system: T10, Rep nickase domain of wheat dwarf virus
# T10 sequence (residues 1-137, tag not shown): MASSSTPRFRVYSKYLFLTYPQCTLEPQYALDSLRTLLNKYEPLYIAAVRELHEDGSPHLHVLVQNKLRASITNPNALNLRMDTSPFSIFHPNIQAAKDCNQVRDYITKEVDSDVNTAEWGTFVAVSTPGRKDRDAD
# Experimental: as §1
sequence,measurement,setting,value
TAAAAAG,uncleaved DNA left (log2),[1],0.031
same,uncleaved DNA left (log2),[2],0.079
same,uncleaved DNA left (log2),[3],-1.24
same,uncleaved DNA left (log2),[4],-2.19
same,uncleaved DNA left (log2),[5],0.224
same,uncleaved DNA left (log2),[6],-1.39
same,uncleaved DNA left (log2),[7],0.153
same,uncleaved DNA left (log2),[8],0.0644
same,uncleaved DNA left (log2),[9],0.111
same,uncleaved DNA left (log2),[10],-0.0607
CCACATC,uncleaved DNA left (log2),[1],-0.0765
same,uncleaved DNA left (log2),[2],0.00278
same,uncleaved DNA left (log2),[3],-0.0882
same,uncleaved DNA left (log2),[4],-0.569
same,uncleaved DNA left (log2),[5],-0.0509
same,uncleaved DNA left (log2),[6],-0.943
same,uncleaved DNA left (log2),[7],0.0346
same,uncleaved DNA left (log2),[8],-0.0943
same,uncleaved DNA left (log2),[9],-0.0869
same,uncleaved DNA left (log2),[10],-0.0473
TTATCAT,uncleaved DNA left (log2),[1],-0.204
same,uncleaved DNA left (log2),[2],0.209
same,uncleaved DNA left (log2),[3],0.417
same,uncleaved DNA left (log2),[4],0.849
same,uncleaved DNA left (log2),[5],-0.0607
same,uncleaved DNA left (log2),[6],1.38
same,uncleaved DNA left (log2),[7],-0.0154
same,uncleaved DNA left (log2),[8],-0.09
same,uncleaved DNA left (log2),[9],0.15
same,uncleaved DNA left (log2),[10],0.169
GTTTTCT,uncleaved DNA left (log2),[1],-0.158
same,uncleaved DNA left (log2),[2],-0.049
same,uncleaved DNA left (log2),[3],0.25
same,uncleaved DNA left (log2),[4],0.655
same,uncleaved DNA left (log2),[5],-0.0434
same,uncleaved DNA left (log2),[6],1.57
same,uncleaved DNA left (log2),[7],-0.257
same,uncleaved DNA left (log2),[8],0.0965
same,uncleaved DNA left (log2),[9],-0.0354
same,uncleaved DNA left (log2),[10],0.0303
AAGCATT,uncleaved DNA left (log2),[1],0.173
same,uncleaved DNA left (log2),[2],-0.0136
same,uncleaved DNA left (log2),[3],0.0962
same,uncleaved DNA left (log2),[4],-1.7
same,uncleaved DNA left (log2),[5],0.0527
same,uncleaved DNA left (log2),[6],0.314
same,uncleaved DNA left (log2),[7],-2.98
same,uncleaved DNA left (log2),[8],0.0814
same,uncleaved DNA left (log2),[9],0.225
same,uncleaved DNA left (log2),[10],0.0627
ATGGATG,uncleaved DNA left (log2),[1],0.00114
same,uncleaved DNA left (log2),[2],-0.0543
same,uncleaved DNA left (log2),[3],-0.0017
same,uncleaved DNA left (log2),[4],0.601
same,uncleaved DNA left (log2),[5],0.0931
same,uncleaved DNA left (log2),[6],0.048
same,uncleaved DNA left (log2),[7],0.108
same,uncleaved DNA left (log2),[8],-0.03
same,uncleaved DNA left (log2),[9],-0.0164
same,uncleaved DNA left (log2),[10],0.0483
TCCTGCT,uncleaved DNA left (log2),[1],-0.769
same,uncleaved DNA left (log2),[2],-0.122
same,uncleaved DNA left (log2),[3],-0.542
same,uncleaved DNA left (log2),[4],-1.72
same,uncleaved DNA left (log2),[5],0.0528
same,uncleaved DNA left (log2),[6],-1.15
same,uncleaved DNA left (log2),[7],-2.98
same,uncleaved DNA left (log2),[8],0.0805
same,uncleaved DNA left (log2),[9],-0.0318
same,uncleaved DNA left (log2),[10],-0.185
GATCCAG,uncleaved DNA left (log2),[1],0.0399
same,uncleaved DNA left (log2),[2],0.0584
same,uncleaved DNA left (log2),[3],-0.145
same,uncleaved DNA left (log2),[4],0.00906
same,uncleaved DNA left (log2),[5],-0.083
same,uncleaved DNA left (log2),[6],-0.605
same,uncleaved DNA left (log2),[7],0.138
same,uncleaved DNA left (log2),[8],-0.117
same,uncleaved DNA left (log2),[9],-0.00185
same,uncleaved DNA left (log2),[10],0.0874
CATGAGA,uncleaved DNA left (log2),[1],0.178
same,uncleaved DNA left (log2),[2],0.0522
same,uncleaved DNA left (log2),[3],-0.517
same,uncleaved DNA left (log2),[4],-0.498
same,uncleaved DNA left (log2),[5],0.245
same,uncleaved DNA left (log2),[6],-1.03
same,uncleaved DNA left (log2),[7],0.255
same,uncleaved DNA left (log2),[8],0.0232
same,uncleaved DNA left (log2),[9],0.119
same,uncleaved DNA left (log2),[10],0.0688
TAGGACG,uncleaved DNA left (log2),[1],-0.106
same,uncleaved DNA left (log2),[2],-0.0267
same,uncleaved DNA left (log2),[3],-0.0784
same,uncleaved DNA left (log2),[4],0.263
same,uncleaved DNA left (log2),[5],-0.113
same,uncleaved DNA left (log2),[6],-0.867
same,uncleaved DNA left (log2),[7],0.0719
same,uncleaved DNA left (log2),[8],-0.0755
same,uncleaved DNA left (log2),[9],0.00786
same,uncleaved DNA left (log2),[10],0.0789
CTACGGG,uncleaved DNA left (log2),[1],0.0832
same,uncleaved DNA left (log2),[2],-0.0775
same,uncleaved DNA left (log2),[3],-0.268
same,uncleaved DNA left (log2),[4],-0.522
same,uncleaved DNA left (log2),[5],0.0272
same,uncleaved DNA left (log2),[6],-0.718
same,uncleaved DNA left (log2),[7],0.107
same,uncleaved DNA left (log2),[8],-0.0225
same,uncleaved DNA left (log2),[9],-0.0173
same,uncleaved DNA left (log2),[10],-0.154
AAGAAAC,uncleaved DNA left (log2),[1],0.192
same,uncleaved DNA left (log2),[2],0.0738
same,uncleaved DNA left (log2),[3],0.142
same,uncleaved DNA left (log2),[4],-0.123
same,uncleaved DNA left (log2),[5],0.176
same,uncleaved DNA left (log2),[6],-0.232
same,uncleaved DNA left (log2),[7],0.029
same,uncleaved DNA left (log2),[8],0.147
same,uncleaved DNA left (log2),[9],0.0612
same,uncleaved DNA left (log2),[10],0.194
CAACAAC,uncleaved DNA left (log2),[1],-0.0208
same,uncleaved DNA left (log2),[2],-0.0301
same,uncleaved DNA left (log2),[3],-0.184
same,uncleaved DNA left (log2),[4],-2.59
same,uncleaved DNA left (log2),[5],-0.0526
same,uncleaved DNA left (log2),[6],-0.694
same,uncleaved DNA left (log2),[7],-0.00849
same,uncleaved DNA left (log2),[8],-0.159
same,uncleaved DNA left (log2),[9],-0.136
same,uncleaved DNA left (log2),[10],-0.0794
AGTCCAT,uncleaved DNA left (log2),[1],-0.0665
same,uncleaved DNA left (log2),[2],-0.049
same,uncleaved DNA left (log2),[3],0.207
same,uncleaved DNA left (log2),[4],0.242
same,uncleaved DNA left (log2),[5],-0.143
same,uncleaved DNA left (log2),[6],0.237
same,uncleaved DNA left (log2),[7],-2.17
same,uncleaved DNA left (log2),[8],-0.0601
same,uncleaved DNA left (log2),[9],0.0379
same,uncleaved DNA left (log2),[10],0.0628
AGGAAAT,uncleaved DNA left (log2),[1],-0.0391
same,uncleaved DNA left (log2),[2],-0.0898
same,uncleaved DNA left (log2),[3],0.375
same,uncleaved DNA left (log2),[4],1.6
same,uncleaved DNA left (log2),[5],-0.0359
same,uncleaved DNA left (log2),[6],1.7
same,uncleaved DNA left (log2),[7],0.056
same,uncleaved DNA left (log2),[8],-0.0154
same,uncleaved DNA left (log2),[9],-0.00109
same,uncleaved DNA left (log2),[10],0.0629
